# Measured values from PubChem BioAssay (NCATS).
# Inconclusive results, whose numbers are uncertain, are shown with a selection of clear calls. No potency is given beside an inconclusive call; the fits are too rough. Activity calls are given as the source filed them. Calls come from the whole dose curve; as a rule, active = well fitted cell-killing curve with a large enough effect; inconclusive = small, poorly fitted or top-dose-only effect; inactive = no such curve, though single readings can be large or run the other way.
# Experiment: qHTS of pediatric cancer cell lines to identify multiple opportunities for drug repurposing: Primary screen for Saos-2 cells (AID 1347097); note: nearly all actives have a fitted effect of over 40% in size
# Conditions: Saos-2 viability, CellTiter-Glo ATP luminescence, 48 h; series mostly up to 46 µM
# From the text: Drug repurposing or repositioning has been offered as a strategy for drug development in oncology programs. This approach has special potential for childhood cancers and other rare or orphan diseases, where the expected return on new drug development has been a disincentive to pharmaceuticals. […] In this project we exploit the poly-pharmacology of drugs to discover new indications via phenotypic screening of a panel of 19 well-characterized cell lines derived from solid tumors seen in children and adolescents. The goal is to identify approved drugs with previously unrecognized anticancer properties that has the potential to reveal new mechanisms and biological processes involved in carcinogenesis or drug resistance. We employed a titration-based paradigm (quantitative high-throughput screening or qHTS), where all compounds were tested at multiple concentrations for their effect on cell viability. Concentration-response curves (CRCs) were derived directly from the primary screen, and both potency and efficacy values were used to identify compounds with robust bioactivity profiles. We screened the NIH Chemical Genomics Center (NCGC) Pharmaceutical Collection (NPC) and Mechanism Interrogation Plate (MIPE) small molecule collections of approved and investigational compounds against these cell lines; and measured metabolically active cells after 48 hours of compound treatment as a proxy for cell viability. […] Assay Submitter: Nathalia J. Martinez, National Center for Advancing Translational Sciences, National Institutes of Health, Rockville, MD, USA; email: natalia.martinez@nih.gov Shen, M et al. Quantitative high-throughput phenotypic screening of pediatric cancer cell lines identifies multiple opportunities for drug repurposing. Oncotarget 2017 Dec 19;9(4):4758-4772. PMID 29435139.
# The cells were obtained from University of North Carolina (UNC), Pediatric Preclinical Testing Program (PPT), and Coriell Institute (CI). qHTS cell viability assay: Cells were assayed in growth media at a density of 500-1,000 cells/well. Five microliters of cells were dispensed into 1,536-well, white, solid-bottom, TC-treated plates (Greiner Bio One) using a multidrop dispenser and incubated at 37 degrees C, 5% CO2, under a humidified atmosphere for 5 hours. Twenty-three nanoliters of compounds and controls (neutral control DMSO or positive control bortezomib at final concentration of 2.3 µM) were subsequently transferred by Kalypsys pintool. For primary screens, the MIPE collection was tested at 11-point dilutions (final concentrations range from 0.78 nM to 46 µM) and the NPC collection at 8-point dilutions (final concentrations range from 0.59 nM to 46 µM). Compounds tested in follow-up screens were assayed at 11-point dilutions. Cells were incubated for 48 hours, followed by addition of 3 µL of CellTiter-Glo (Promega). After a 15 min incubation at room temperature, samples were analyzed for luminescence intensity using a ViewLux High-throughput CCD imager equipped with clear filters.
# Potency is the fitted concentration of half-maximal effect; tags give direction and shape of the fitted curve.
row,SMILES,Potency
1,CC(C)(C)c1nnc(NS(=O)(=O)c2ccccc2)s1,inactive
2,CN(C)CCCN1c2ccccc2Sc2ccccc21,"inconclusive [cytotoxic, single point]"
3,CCN[C@@H]1C[C@H](N)[C@@H](OC2OC(CN)=CCC2N)[C@H](O)[C@H]1O[C@H]1OC[C@](C)(O)[C@H](NC)[C@H]1O (stereo not given in full),"inconclusive [cytotoxic, single point]"
4,CCOc1cc2ncc(C#N)c(Nc3ccc(OCc4ccccn4)c(Cl)c3)c2cc1NC(=O)C=CCN(C)C,active: 1.18 µM
5,Nc1ccn([C@@H]2O[C@H](CO)[C@@H](O)C2(F)F)c(=O)n1,"inconclusive [cytotoxic, partial curve]"
6,O=C(O)[C@H](O)[C@@H](O)[C@H](O[C@@H]1O[C@H](CO)[C@H](O)[C@H](O)[C@H]1O)[C@H](O)CO,inactive
7,OC(CCN1CCCCC1)(c1ccccc1)C1CCCCC1 (stereo not given),"inconclusive [cytotoxic, single point]"
8,COc1cc2c(Oc3ccc(-c4cnc(Nc5ccc(F)cc5)n(C)c4=O)cc3F)ccnc2cc1OCCCN1CCOCC1,active: 2.09 µM
9,CC(C)=CCNc1ncnc2c1ncn2[C@@H]1O[C@H](CO)[C@@H](O)[C@H]1O,"inconclusive [cytotoxic, single point]"
10,OCc1c[nH]c2ccccc12,"inconclusive [cytotoxic, partial curve]"
11,CC1CCCCN1CCCOC(=O)c1ccc(OC2CCCCC2)cc1 (stereo not given),"inconclusive [cytotoxic, single point]"
12,COc1cc2c(cc1OC)C(=O)C(CC1CCN(Cc3ccccc3)CC1)C2 (stereo not given),inactive
13,N[C@@H](COP(=O)(O)O)C(=O)O,"inconclusive [cytotoxic, single point]"
14,NC(=O)c1c(OCc2c(F)cc(Br)cc2F)nsc1NC(=O)NCCCCN1CCCC1,inactive
15,C[C@@H]1CN(CCCn2c3ccccc3c3ccccc32)C[C@H](C)N1,"inconclusive [cytotoxic, single point]"
16,CCN(CC)CCNC(=O)c1c(C)[nH]c(C=C2C(=O)Nc3ccc(F)cc32)c1C,active: 4.29 µM
17,CCCCC(CC)COC(=O)c1ccccc1O (stereo not given),inactive
18,O=C(O)c1cc(-c2ccccc2)nc2ccccc12,"inconclusive [cytotoxic, single point]"
19,O=C(Oc1ccccc1)c1cccc(C(=O)Oc2ccccc2)c1,inactive
20,C/C=C(/C(=C/C)c1ccc(OC(C)=O)cc1)c1ccc(OC(C)=O)cc1,"inconclusive [cytotoxic, partial curve]"

row,SMILES,Potency
1,CN1C[C@H]2c3ccccc3Oc3ccc(Cl)cc3[C@@H]2C1,"inconclusive [cytotoxic, single point]"
2,COc1cc(C(=O)NCc2ccc(OCCN(C)C)cc2)cc(OC)c1OC,"inconclusive [cytotoxic, partial curve, poor fit]"
3,O=C1NC2CCCCN2C12CCN(CCCN1c3ccccc3CCc3ccc(Cl)cc31)CC2 (stereo not given),active: 23.7 µM
4,CCC1=C[C@@H]2CN(C1)Cc1c([nH]c3ccccc13)[C@@](C(=O)OC)(c1cc3c(cc1OC)N(C)[C@H]1[C@@](O)(C(=O)OC)[C@H](OC(C)=O)[C@]4(CC)C=CCN5CC[C@]31[C@@H]54)C2,"inconclusive [cytotoxic, full curve]"
5,COC(=O)[C@@H](N)Cc1ccc(O)c(O)c1,"inconclusive [cytotoxic, single point]"
6,CC(=O)Nc1sc2c(c1-c1nc3ccccc3s1)CNC2,"inconclusive [cytotoxic, partial curve]"
7,CC[C@H](Nc1ncnc2nc[nH]c12)c1nc2cccc(F)c2c(=O)n1-c1ccccc1,active: 9.35 µM
8,COc1cc2nccc(Oc3ccc(NC(=O)C4(C(=O)Nc5ccc(F)cc5)CC4)cc3)c2cc1OC,active: 18.7 µM
9,CCCC(=O)O[C@]1(C(=O)CC)CC[C@H]2[C@@H]3CCC4=CC(=O)CC[C@]4(C)[C@H]3[C@@H](O)C[C@@]21C,"inconclusive [cytotoxic, single point]"
10,CN1CCN(C2=Nc3cc(F)ccc3Cc3ccccc32)CC1,"inconclusive [cytotoxic, single point]"
11,C=CCNc1c(O)cc2c(O)c1C[C@@H](C)C[C@H](OC)[C@@H](O)[C@@H](C)C=C(C)[C@H](OC(N)=O)[C@@H](OC)C=CC=C(C)C(=O)N2,"inconclusive [cytotoxic, full curve]"
12,COc1ccc(/C=C/C(=O)c2ccc(OC)cc2OC)cc1,active: 10.6 µM
13,OCCN1CCN(CC/C=C2/c3ccccc3Sc3ccc(C(F)(F)F)cc32)CC1,"inconclusive [cytotoxic, single point]"
14,c1cc(CN2CCCCC2)cc(OCCCNc2nc3ccccc3s2)c1,"inconclusive [cytotoxic, partial curve]"
15,O=c1[nH]nc(Sc2ncc([N+](=O)[O-])s2)n1-c1ccc2c(c1)OCCO2,active: 10.5 µM
16,Clc1ccc2c(c1)CCc1cccnc1C2=C1CCNCC1,"inconclusive [cytotoxic, partial curve, poor fit]"
17,CO[C@H]1C=CO[C@@]2(C)Oc3c(C)c(O)c4c(O)c(c(/C=N/N5CCN(C)CC5)c(O)c4c3C2=O)NC(=O)/C(C)=C\C=C[C@H](C)[C@H](O)[C@@H](C)[C@@H](O)[C@@H](C)[C@H](OC(C)=O)[C@@H]1C,"inconclusive [cytotoxic, single point]"
18,Cc1cnc(NC(=O)Nc2cc(Br)c(C)cc2OC[C@@H]2CNCCO2)cn1,"inconclusive [cytotoxic, full curve]"
19,CC(=O)OC/C=C(C)/C=C/C=C(C)/C=C/C1=C(C)CCCC1(C)C,"inconclusive [cytotoxic, single point]"
20,C=C1C(=C/C=C2\CCC[C@]3(C)[C@@H]([C@H](C)/C=C/[C@@H](O)C4CC4)CC[C@@H]23)C[C@@H](O)C[C@@H]1O,"inconclusive [cytotoxic, partial curve]"
